Experimental findings from the CheMixHub viscosity set are described below.

Broadly, the viscosity is the internal friction of a fluid under shear. A high value points to a thick fluid.

± gives the uncertainty stated by the source. A number of entries come with more than one value. This list holds those alone. The source may hold further records. The records of an entry repeat one measurement (runs, samples, wells, individuals or studies). What stands in brackets tells the records apart. The letters are not those of the source and start again with each entry.

The conditions of this series: 101 kPa.

On to `Cc1cc(C)cc(C)c1`, for which the viscosity (308.15 K) is 0.575 ± 0.012 mPa·s [study A] and 0.5614 ± 0.0047 mPa·s [study B] and 0.5734 ± 0.013 mPa·s [study C] and 0.548 ± 0.15 mPa·s [study D]; the viscosity (313.15 K) is 0.555 ± 0.012 mPa·s [study A] and 0.545 ± 0.011 mPa·s [study B] and 0.4376 ± 0.13 mPa·s [study C] and 0.555 ± 0.015 mPa·s [study D].
Turning to `OCCCCO`, the viscosity is 41.6 ± 2 mPa·s [study A] and 44.3 ± 0.9 mPa·s [study B] and 46 ± 0.26 mPa·s [study C] and 45.24 ± 0.29 mPa·s [study D] (308.15 K); 30.5 ± 1.5 mPa·s [study A] and 29.4 ± 0.6 mPa·s [study B] and 29.7 ± 0.17 mPa·s [study C] and 30.12 ± 0.2 mPa·s [study D] (318.15 K).
